Assay results as given in PubChem BioAssay AID1240 (Sanford-Burnham Center for Chemical Genomics, 2008).
Screen size: about 50,000 compounds; about 800 (1.6%) showed an effect of 50% or more. This is one part of the list.

Target: Bcl-2-like protein 10 (Homo sapiens) (UniProt Q9HD36)
Test: TR3 peptide-Bcl-B binding displacers, biochemical primary FP assay, phenotype converters (AID 1240);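 further: 0% = Bcl-B with tracer peptide and DMSO and 100% = tracer peptide lacking Bcl-B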
Settings: GST-Bcl-B / FITC-TR3 peptide fluorescence polarization; stronger effect = higher value; compound at 3.75 mg/L

UniProt Q9HD36, sequence (Q9HD36 whole entry, looked up): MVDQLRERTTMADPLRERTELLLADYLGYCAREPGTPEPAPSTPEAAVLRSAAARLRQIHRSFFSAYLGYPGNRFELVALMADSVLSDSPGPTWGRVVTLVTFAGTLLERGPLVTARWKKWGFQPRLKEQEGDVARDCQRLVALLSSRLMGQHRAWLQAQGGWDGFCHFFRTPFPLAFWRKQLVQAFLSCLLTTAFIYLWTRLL

Row | Compound | displacement [%]
1 | CC(NC1CCCCC1)C(O)C12CC3CC(CC(C3)C1)C2 (stereo not drawn) | -12.1
2 | Cc1cccc(-n2c(/C=C\c3ccc(Br)cc3)nc3ccccc3c2=O)c1 | 18.6
3 | COc1ccc(OC)c(CNCCc2ccc([N+](=O)[O-])cc2)c1 | 16.4
4 | COc1cc(/C=C/[N+](=O)[O-])ccc1OC(C)=O | 5.3
5 | CCCCn1c(=O)c(C(=O)Nc2ncccc2O)c(O)c2ccccc21 | 2.6
6 | O=C1NC(=O)C(=Cc2cccc(OCc3ccccc3)c2)C(=O)N1 | 6.9
7 | CC(C)c1cccc(C(C)C)c1OCCn1ccnc1 | -8.4
8 | COc1cccc(/C=C2/C(=O)NC(=O)N(c3cccc(C)c3)C2=O)c1O | 3.1
9 | COc1ccccc1OCCn1cc(C=C2C(=O)NC(=O)NC2=O)c2ccccc21 | 38.7
10 | O=C(CN1CCOCC1)Nc1ccc(Cl)cc1C(=O)c1ccccc1 | 0.4
11 | CCC1(c2ccccc2)C(=O)NC(=O)N(C(=O)c2ccccc2Cl)C1=O (stereo not drawn) | 3.9
12 | CCCn1c(C)c(C(=O)OCC)c2cc(O)ccc21 | 0.8
13 | Cc1cccc(C(=O)Nc2ccc(Cl)cc2C(=O)c2ccccc2)c1 | -12.2
14 | COCCOC(=O)C1CN1C(C)C(=O)OC (stereo not drawn) | -8.9
15 | Fc1ccc(CNCCc2c[nH]c3ccccc23)cc1 | 10.4
16 | O=C1/C(=C/c2ccc(O)cc2)N2CCC1CC2 | 13.1
17 | CN1C(=O)C(=Cc2cccn2-c2cccc([N+](=O)[O-])c2)C(=O)N(C)C1=O | 27.3
18 | Cc1c(C)[n+](=O)c2cc(N3CCN(C)CC3)c(Cl)cc2n1[O-] | 5.3
19 | O=C1CC(=O)N(c2ccc(Cl)c(Cl)c2)C(=S)N1 | 0.8
20 | CCCCCn1c(=O)c(C(=O)Nc2ccc(C)cc2C)c(O)c2ccccc21 | -3.6

Row | Compound | displacement [%]
21 | COc1ccc(O)c(CN2CCN(Cc3ccccc3Br)CC2)c1 | -5.1
22 | Cc1ccccc1-n1c(/C=C/c2ccc(Br)cc2)nc2ccccc2c1=O | -2.8
23 | COc1cc(CNCCc2ccc(Cl)cc2)cc(OC)c1OC | 12
24 | CCN1CCC2(CC1)CC(C)c1cccc(C)c1N2 (stereo not drawn) | 12.7
25 | COc1ccc(N2C(=O)NC(=O)/C(=C/c3ccc(SC)cc3)C2=O)cc1 | -9.4
26 | O=C1NC(=O)C(=Cc2ccccc2)C(=O)N1 | -4.2
27 | CC(C)(NO)C(=O)c1ccc(F)cc1 | 13
28 | O=C1NC(=O)N(c2ccc(Cl)cc2)C(=O)/C1=C/c1ccccc1 | 4.7
29 | CCOc1ccc(NC(=S)NC2CN3CCC2CC3)cc1 (stereo not drawn) | 18.6
30 | COc1cc(/C=C\c2nc3ccccc3c(=O)n2-c2ccc(O)cc2)ccc1O | -24.7
31 | CC(C)N1CCN(Cc2ccc(Br)cc2)CC1 | -0.5
32 | O=C(N1CCN(c2ccccc2)CC1)C(O)(c1ccccc1)c1ccccc1 | -0.4
33 | CCC(CC)C1C(C#N)=C(N)Oc2c1c(=O)oc1ccccc21 (stereo not drawn) | -15.4
34 | Cc1cc(OCc2ccc([N+](=O)[O-])cc2)c2c3c(c(=O)oc2c1)CCCC3 | -3.3
35 | Cc1c(C=O)c2ccccc2n1Cc1ccccc1Cl | -10.6
36 | O=C(COc1ccc(Cl)cc1)N1CCN(Cc2ccccc2)CC1 | -3.3
37 | CCC1(CC)C(=O)NC(=O)N(C(=O)c2ccc(Br)cc2)C1=O | 9.2
38 | CC1(C)OC(c2ccccc2)=C/C(=C/C=C2C(=O)NC(=O)NC2=O)O1 | -0.9
39 | O=[N+]([O-])/N=C1/NCN(Cc2ccccc2)CN1Cc1ccccc1 | -4.2
40 | CN(C)c1ccc(C=C2C(=O)NC(=S)N(c3ccccc3F)C2=O)cc1 | 6.7

Row | Compound | displacement [%]
41 | Cn1c(O)c(C=NC2CC(C)(C)NC(C)(C)C2)c(=O)n(C)c1=O | -2.9
42 | COc1ccc(-c2nc3ccccc3c(=O)n2-c2ccccn2)cc1 | 3.2
43 | O=C1c2ccccc2-c2onc3c(Br)cc(N4CC4)c1c23 | 178
44 | O=C(COc1ccc2ccccc2c1)N1CCN(Cc2ccc(Br)cc2)CC1 | -0.6
45 | Cc1nc2ccccc2c(=O)n1-c1ccc([N+](=O)[O-])cc1 | 11.9
46 | COc1ccc(OC)c(N2C(=O)CC(=O)NC2=O)c1 | -5.1
47 | O=c1oc2ccccc2c(O)c1C(c1ccccc1F)c1c(O)c2ccccc2oc1=O | 9.2
48 | O=C(Nc1ccc(Br)cc1C(=O)c1ccccc1)c1ccc([N+](=O)[O-])cc1 | 7.9
49 | COc1cc(OC)c(OC)cc1CN1CCNCC1 | -4.5
50 | O=C(N1CCN(c2ccccc2Cl)CC1)C(O)(c1ccccc1)c1ccccc1 | -0.3
51 | CC(C)COc1ccc(Cc2c(O)[nH]c(=S)[nH]c2=O)cc1 | -13.2
52 | CCC1(Cc2ccccc2)C(=O)NC(=O)NC1=O | 4.4
53 | C=CCc1cc(/C=C2\C(=O)NC(=O)N(c3cc(C)cc(C)c3)C2=O)cc(OC)c1O | -5.3
54 | Cc1cc(OCc2ccccc2)c2c3c(c(=O)oc2c1)CCC3 | 7.8
55 | CC(=O)c1cc(F)c(N2CCN(C)CC2)cc1C | -5.1
56 | CCc1c(C)sc(NC(=O)C23CC4CC(CC(C4)C2)C3)c1C(=O)OC | 7.9
57 | CCC(C)c1ccc(OCCOc2ccc(C=C3C(=O)NC(=O)NC3=O)cc2)cc1 (stereo not drawn) | 6.9
58 | Cc1cccc(-n2c(-c3cccs3)nc3ccccc3c2=O)c1 | 1
